Experimental data: the supplement of paper PMC3334620
Whole data set: some 33,000 sequences, median “E-score (-0.5 to 0.5)” near -0.053, cut for the highest 2% near 0.37. The list shows a part of the results.

Molecular target: Hap1 (UniProt P0CE41)
Assay: PBM E-score (8-mer binding enrichment) (E-score (-0.5 to 0.5)); higher = stronger / more preferred TF binding; most listed sequences are background and not binding sites
Conditions: protein concentration: 200 nM; construct: GST-DNA-binding domain
How it was run: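 Each ungapped eight-base word and its reverse complement, pooled, received an E-score from the Universal PBM Analysis Suite. Underlying scans, normalised with masliner, recorded fluorescent anti-GST bound to GST-tagged yeast transcription factors. These were applied at about 100-200 nM to universal all-10-mer Agilent arrays double-stranded by primer extension.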

Sequence of UniProt P0CE41 (P0CE41 whole entry): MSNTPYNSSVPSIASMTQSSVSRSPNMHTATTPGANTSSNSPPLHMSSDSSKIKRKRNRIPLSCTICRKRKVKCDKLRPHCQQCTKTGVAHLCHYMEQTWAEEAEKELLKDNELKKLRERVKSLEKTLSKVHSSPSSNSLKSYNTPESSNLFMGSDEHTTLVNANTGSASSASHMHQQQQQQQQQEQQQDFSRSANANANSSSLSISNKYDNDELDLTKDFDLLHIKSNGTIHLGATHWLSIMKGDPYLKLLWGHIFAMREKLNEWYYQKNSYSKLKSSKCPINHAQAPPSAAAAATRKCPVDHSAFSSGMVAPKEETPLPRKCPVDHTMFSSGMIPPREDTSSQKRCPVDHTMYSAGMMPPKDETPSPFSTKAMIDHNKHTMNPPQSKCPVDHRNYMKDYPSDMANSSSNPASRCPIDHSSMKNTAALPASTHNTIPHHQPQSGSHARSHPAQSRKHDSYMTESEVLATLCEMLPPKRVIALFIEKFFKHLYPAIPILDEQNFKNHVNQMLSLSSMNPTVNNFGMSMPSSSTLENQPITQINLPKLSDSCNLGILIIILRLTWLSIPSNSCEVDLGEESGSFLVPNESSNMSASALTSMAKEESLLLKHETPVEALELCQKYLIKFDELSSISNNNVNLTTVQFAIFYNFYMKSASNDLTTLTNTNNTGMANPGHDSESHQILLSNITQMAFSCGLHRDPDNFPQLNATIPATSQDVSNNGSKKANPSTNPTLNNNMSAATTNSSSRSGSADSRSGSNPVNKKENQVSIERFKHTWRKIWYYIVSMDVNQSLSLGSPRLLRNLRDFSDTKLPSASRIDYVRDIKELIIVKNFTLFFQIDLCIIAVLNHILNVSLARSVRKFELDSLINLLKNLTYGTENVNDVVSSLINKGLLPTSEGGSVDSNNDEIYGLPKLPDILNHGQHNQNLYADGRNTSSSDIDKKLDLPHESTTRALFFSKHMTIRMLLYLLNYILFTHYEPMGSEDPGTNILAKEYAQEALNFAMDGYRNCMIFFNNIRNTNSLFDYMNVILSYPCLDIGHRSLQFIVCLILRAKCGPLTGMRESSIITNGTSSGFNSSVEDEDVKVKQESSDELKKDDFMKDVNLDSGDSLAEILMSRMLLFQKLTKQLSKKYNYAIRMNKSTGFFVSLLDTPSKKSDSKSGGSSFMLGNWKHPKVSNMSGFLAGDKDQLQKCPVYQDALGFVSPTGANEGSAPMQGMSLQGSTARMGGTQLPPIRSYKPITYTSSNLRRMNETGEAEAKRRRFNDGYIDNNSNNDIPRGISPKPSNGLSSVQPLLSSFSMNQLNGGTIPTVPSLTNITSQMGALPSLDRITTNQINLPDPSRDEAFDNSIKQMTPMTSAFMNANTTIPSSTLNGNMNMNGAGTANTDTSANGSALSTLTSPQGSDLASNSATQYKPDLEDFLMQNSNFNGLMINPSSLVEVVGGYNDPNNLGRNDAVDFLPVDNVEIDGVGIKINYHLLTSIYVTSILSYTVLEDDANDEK

Row | Sequence | PBM E-score
1 | ACAGCTTG | -0.179
2 | CTTTCACC | 0.012
3 | TAATGCGA | -0.0751
4 | ATATACCG | 0.33
5 | CGCAGCTA | 0.166
6 | AGTACACC | -0.0977
7 | AAATATTT | -0.148
8 | CTGCTGGC | -0.144
9 | ACCGTCCG | 0.381
10 | AATTTTCA | -0.138
11 | GACACTCA | -0.0724
12 | CCACTCTA | -0.231
13 | CCGGTGCG | 0.342
14 | CAGTGGTC | -0.135
15 | GGTCCTGA | 0.012
16 | GGTAACAC | -0.0637
17 | CCTGGTAG | -0.177
18 | CCTTATAC | -0.0633
19 | CAGTCACG | -0.182
20 | CACACGCA | -0.123
21 | CACACCGG | 0.288
22 | CCTAAGCC | 0.00861
23 | CCCGAACC | 0.2
24 | CAAACCAG | -0.174
25 | AAGATGTG | -0.249

Row | Sequence | PBM E-score
26 | ACGCCCAC | -0.0707
27 | GGACTACC | 0.138
28 | GGTTGTGA | 0.0269
29 | GGCGTCTA | -0.00561
30 | TTAGACAA | -0.0633
31 | GCGCTGAA | -0.108
32 | ATGACCTG | -0.0341
33 | AAGAAAAA | -0.158
34 | ACGCACCG | 0.00605
35 | CGTTGCGA | -0.0877
36 | TCCAAAGA | -0.0808
37 | CTACTGAG | -0.127
38 | CCTCAATA | -0.16
39 | ATTACTGA | -0.354
40 | GAGTACCA | -0.00397
41 | AAACACCT | -0.0632
42 | TATCGTGA | -0.136
43 | AGGTGTAC | -0.262
44 | AGTTCCAT | -0.0302
45 | CTGATCGC | -0.189
46 | AATGAGTG | -0.0224
47 | ATGCGGTC | 0.149
48 | AAGAATCC | 0.16
49 | CCCGCCCC | 0.243
50 | ATCACTAA | 0.0244

Row | Sequence | PBM E-score
51 | CCATGCGA | -0.0116
52 | AAGGATGC | -0.36
53 | CCTGCTAG | -0.234
54 | ACATCTCG | 0.106
55 | AGGCATTC | -0.135
56 | GCTGACTA | -0.0345
57 | GACGCAAA | -0.0213
58 | TAGCTTAA | -0.135
59 | ACTATGCA | -0.16
60 | TAATATAA | 0.145
61 | GAAGCGCC | 0.171
62 | AGCGCGCA | 0.152
63 | AATCCCTC | -0.0615
64 | CGAGCTTC | 0.0852
65 | CCATACTC | -0.00759
66 | AAGTTGAA | -0.187
67 | CATTTGCA | -0.167
68 | ATGTCTCG | 0.0854
69 | AGAACCTA | -0.163
70 | AGTTCAAG | 0.0135
71 | GCCTATGA | -0.18
72 | ACCATCTA | -0.0917
73 | GTCACGCA | -0.131
74 | ACCACCGG | 0.344
75 | ACTCACTC | -0.00058

Row | Sequence | PBM E-score
76 | CAGCAAGC | -0.258
77 | CACCACTC | 0.0624
78 | AGCGGCAA | 0.0491
79 | GAGCCCCA | -0.0262
80 | AATTGAAC | -0.129
81 | CCATACAG | -0.185
82 | ACCCCTGG | -0.0916
83 | ACTATAGA | -0.0706
84 | GCCATAAA | 0.0924
85 | AATCCAAT | -0.0573
86 | GGTAAACC | 0.104
87 | TAAGGCGA | -0.0281
88 | ACCTTACT | 0.105
89 | GATGGATA | -0.0946
90 | AATGCGAA | 0.0401
91 | GTACGTAA | -0.116
92 | AACAGAGT | -0.196
93 | CCCAAGAA | -0.177
94 | ATAACTCG | 0.205
95 | GTTATAAC | 0.162
96 | ACCTTACG | 0.0388
97 | GGATATTA | 0.344
98 | AGATGCAT | -0.129
99 | CAACTCAG | -0.105
100 | AACGTCGG | 0.177

Row | Sequence | PBM E-score
101 | ATAGCTTA | -0.151
102 | CATGATGC | -0.199
103 | ATGGCTAG | -0.139
104 | AGGAGACC | -0.0433
105 | CGTGTGCC | -0.16
106 | ATGGCGCG | 0.0751
107 | GCAGCCCC | 0.161
108 | CCGTGCGC | 0.181
109 | ATTTTCAG | 0.00634
110 | GCTAGCCC | 0.00246
111 | TCGACAAA | 0.0335
112 | ATCCTCTA | -0.221
113 | GGTAAGAA | -0.0886
114 | AGTAATGC | -0.0163
115 | AACCGAGA | 0.236
116 | CGAGGCTC | 0.0721
117 | CACGCGGG | -0.0168
118 | CTAGCGGA | 0.28
119 | GTAAACCA | -0.00443
120 | ATTCGTAG | -0.177
121 | CTCCCCAC | -0.197
122 | AGCCGAAT | 0.267
123 | AACGCTGG | -0.128
124 | ACGTATTC | -0.0867
125 | CCTTATCG | 0.241

Row | Sequence | PBM E-score
126 | GCTTCGCC | 0.106
127 | AGGTACGC | -0.0652
128 | ACTTGCGG | 0.0305
129 | ACCAGCTG | -0.227
130 | TACGTACA | -0.0577
131 | AAGTCAGG | 0.00026
132 | CATATCAA | -0.114
133 | GGCCCCAA | -0.0333
134 | CGCTAGGC | -0.0881
135 | AAGATAGA | -0.195
136 | CAGGTATA | -0.214
137 | ATCCAGAG | -0.102
138 | GTGCAAAA | -0.126
139 | GAACCACC | 0.141
140 | AGTCAGCG | -0.0462
141 | TCCCCTAA | -0.0455
142 | TCGCAAGA | -0.0283
143 | CTTGACGC | -0.0589
144 | GTCGGAGA | 0.355
145 | ACTGCTGC | -0.0718
146 | CACCCAAA | -0.047
147 | ACCAATAA | -0.136
148 | CTGCGTAA | -0.0618
149 | CTTTTGCA | -0.0944
150 | TCCAGGAA | -0.0908

Row | Sequence | PBM E-score
151 | CCATAGGA | -0.258
152 | AAATTCAG | -0.0685
153 | CTTCAATC | -0.0343
154 | ACATTAAT | 0.0268
155 | CGGAGGGC | 0.164
156 | AACCTAGC | -0.025
157 | AGAGAGAG | -0.302
158 | CCGTTGGA | 0.0227
159 | ATAACCCA | -0.0514
160 | GATTGTCA | -0.0455
161 | TCCGACGA | 0.324
162 | CATTGCAC | -0.133
163 | CAATTCCC | 0.0855
164 | TGCGTCAA | -0.0196
165 | GTACAAGA | -0.151
166 | AGCTGTTA | -0.0992
167 | AGAACCCT | -0.114
168 | CTCCTAGA | -0.252
169 | CAAATAGA | 0.0286
170 | ATTGAGCA | -0.201
171 | AAGCTGTA | -0.0893
172 | AAAATGAC | 0.00651
